Reference: the supplement of paper PMC11417369
± gives the standard deviation of the averaged measurements. Some of the results follow.

These sequences were tested on PfAP2-LT AP2 domain (GST-tagged) (assay: gcPBM binding intensity (ln(normalized median fluorescence intensity)); higher = stronger DNA binding).
Summary of the method: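 Alexa488 anti-GST antibody, scanned at 488 nm, detected GST-tagged P. falciparum DNA-binding domains that had been expressed in E. coli and incubated for 1 h on an Agilent 4 × 180k array. The array carried primer-extended double-stranded 36-bp intergenic genomic probes and negative controls. Binding intensity is the highest Masliner-normalised natural-log median intensity across replicate spots of either orientation of each probe.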

| Sequence | gcPBM binding intensity (ln) |
| --- | --- |
| AAAAAAAAAAAATGTGCACACGCGTACACCCAAAAA [CACACA_site8614] | 9.03 ± 0.4 |
| TTTCTTTTTGTTCGTGTACACACATGAAATTTATAA [CACACA_site8466] | 8.95 ± 0.45 |
| CAATTTTTATGTGTGTGTACTCATTTGTTTTATAAA [XGTACX_site406] | 9.21 ± 0.35 |
| AATAGATATATAAATACACACAAACATACCTATATA [CACACA_site7823] | 9.41 ± 0.32 |
| AAACAAAGGGAACATGTGCACTTACAAAAAAAAAGA | 9.03 ± 0.54 |
| TCACACCTTTTTGGTTGTACTTAAATTTCTTTTTTT [XGTACX_site6438] | 8.49 ± 0.49 |
| TTCCCTTATTTTGTATGTACACAATTTATCATGTTG [XGTACX_site2896] | 9.21 ± 0.43 |
| ATATATATATATGCATGTACATATATTTGTTATATC [XGTACX_site3197] | 9.62 ± 0.2 |
| ATTTATTTTAATTTTTTTTTTTCTCTTTTGGATCTA [CACACA_negctrl_site1408] | 8.39 ± 0.54 |
| ATTAGGCATATTTTCTGTACACAATAATAAAAAAAA [XGTACX_site3957] | 8.49 ± 0.46 |
| TGTAATATGAAATGTGTACACACGCACCCACAAAAA [CACACA_site8948] | 9.38 ± 0.36 |
| TTCTCAAAGTTTACGTGTACATAAATTATATAAATG [XGTACX_site2622] | 8.48 ± 0.42 |
| AATGAATTTAATTCTACTATTTTTTTTTTAAATATT [XGTACX_negctrl_site296] | 8.33 ± 0.35 |
| TACATACATACATACACACACACATCTATATTTATA [CACACA_site6171] | 9.81 ± 0.26 |
| GACAGATTATAGCATAGTACTCATACATACATACAT [XGTACX_site1252] | 9.09 ± 0.46 |
| TTTCAAAAATTATTTTGTACATATAATTAATATACG [XGTACX_site512] | 8.51 ± 0.38 |
| TTTTATTATTTGTCTTGTACTCATTGTAAGAGTATG [XGTACX_site1538] | 8.7 ± 0.42 |
| AAAAAAAAAAAAATGGTGCAACTTTGTTAAAGGAAA [GTGCAC_site9950] | 8.57 ± 0.6 |
| ATTTAAAAGTTGGTAGTGCATTAAAAATAACAAAAA [GTGCAC_site9835] | 8.55 ± 0.53 |
| AATTTCTTCCATTGTAGTACTCAATTTTTTTTTGTT [XGTACX_site5847] | 9.05 ± 0.42 |
| GTGTAATATTATATATATATATATAATATATATACA [CACACA_negctrl_site263] | 8.86 ± 0.33 |
| CACATATACAAAAAGAAATGTTTAGTTGAAAATTAA [CACACA_negctrl_site1407] | 8.49 ± 0.51 |

| Sequence | gcPBM binding intensity (ln) |
| --- | --- |
| AAAAATTTGGCATACACACACACACGCACACGCACA [CACACA_site6422] | 10.2 ± 0.21 |
| AATTATACTCACGTTACACACACACTATAAATATAT [CACACA_site7863] | 9.48 ± 0.35 |
| ATTAATATGAATAAAACACACATATATAACTTGTAA [CACACA_site6989] | 8.86 ± 0.38 |
| TATTACATTATTCAAAAAAATTTATATGGTTATAGG [CACACA_negctrl_site1657] | 8.23 ± 0.37 |
| TGATAATAAGCATACACACACACACCCAAAAAAAAA [CACACA_site721] | 10.2 ± 0.25 |
| AAATAAAAAAAAAAAAAAAATAACTTAAATGGGATA [TGCATGCA_negctrl_site595] | 8.33 ± 0.58 |
| AACTAAATGTTATTCGCACACGGAATTTATTTAATG [CACACA_site3664] | 8.96 ± 0.36 |
| ATATATATATATATATATATATATATGATTATTACT [GTGCAC_negctrl_site109] | 9.9 ± 0.35 |
| TAAACTATATTTACATGTACATATAATATTAAATAA [XGTACX_site3528] | 8.49 ± 0.4 |
| CCTATAAAACCATATACACACATATAAATAAAAAAA [CACACA_site7809] | 9.02 ± 0.48 |
| AAAAAAAAATTAGGGGTGCCATTTGCTGCTGTGCTT [GTGCAC_site9913] | 8.87 ± 0.26 |
| TTTTGTATTTCTCACACACACATAAGTAAACAATAA [CACACA_site5105] | 9.18 ± 0.33 |
| TAGTAAAAGATATACACACACCAAAAAATATAATTA [CACACA_site7142] | 9.39 ± 0.4 |
| AATTATATTCAAAATGGTACACACAATATTTAATTG [XGTACX_site5521] | 8.79 ± 0.49 |
| CAAAGCATTTTATCTACACACATATATAAATAAATA [CACACA_site7500] | 8.94 ± 0.33 |
| ATCTTTATTTTTAGCGCACACATAAAATAATAATAA [CACACA_site3458] | 9.04 ± 0.38 |
| TATTTTAACTTTTTTTCCTTTATTCATTTTTTTTTC [CACACA_negctrl_site971] | 8.54 ± 0.53 |
| TTTTTTTTTTTATGTGCACACAAAAGATGCTTATAT [CACACA_site2347] | 9.15 ± 0.45 |
| TGATGCAAGATATATACACACATATAAATATAAATA [CACACA_site7429] | 9.16 ± 0.43 |
| TTATGATAACTTTGCACACACTTAGGAAAAGTTATG [CACACA_site6836] | 9.01 ± 0.35 |
| TGATTATATAAAAAAAAGAAAAAAAAAAAAAAAAAA [CACACA_negctrl_site819] | 8.27 ± 0.42 |
| ATGCATCATTTATTTGCACACCTATTATATACTTTT [CACACA_site2097] | 9.2 ± 0.39 |

| Sequence | gcPBM binding intensity (ln) |
| --- | --- |
| TATATATATATAATATGTACATATATATATTCTTAA [XGTACX_site6154] | 8.7 ± 0.34 |
| ATAATTCATGTTTAGTGTACAAAAAATTAAAGCAAC [XGTACX_site8891] | 8.93 ± 0.41 |
| AAATAATTTATATGTAGTACATGTTGTAGATAATTT [XGTACX_site1031] | 8.79 ± 0.39 |
| GATATAGATATTAATTGTACATATTATTTATTGTTA [XGTACX_site846] | 8.76 ± 0.44 |
| TTCTAAAAAGGGTGTACACAAACGAATGGAAAATAA [CACACA_site5483] | 9.03 ± 0.43 |
| ATAATTTTTATTTGTACACACATACAGATATATTAT [CACACA_site4701] | 9.2 ± 0.42 |
| GATATGTACTAATACACACACATATATATATATATA [CACACA_site1022] | 10.2 ± 0.23 |
| AATAATACGTTAAATGTTCTTACAAGTTGGTTTCAT [CACACA_negctrl_site1029] | 8.76 ± 0.42 |
| TAAAGGTGTAAAACTGCATGCTGGAGAAAAGTAAAA [TGCATGCA_site591] | 8.98 ± 0.54 |
| ATTATATAATATAATGCATGTGTTAATGAAAAATCT [TGCATGCA_site426] | 8.75 ± 0.44 |
| AAAAAAAAATTTGTATCACACACGTATTATAAAAAA [CACACA_site6] | 8.86 ± 0.47 |
| AAAAAAAAAAAAAAGTGTACCTTATTATACTTTAAT [XGTACX_site8439] | 8.46 ± 0.42 |
| CACACTAAAAGACACACACACACACGCATATAAATA [CACACA_site7874] | 10.3 ± 0.4 |
| AAATATATATATATATGTACACACACACATATAAAT [XGTACX_site847] | 9.87 ± 0.32 |
| TTGTAGGAATTTATTTTGACTGATAATTAATACGTT [GTGCAC_negctrl_site46] | 8.58 ± 0.55 |
| TAGTGTAAAAAATACGCATGTGTACAAATATAATAA [TGCATGCA_site498] | 9.27 ± 0.5 |
| ATTAAACATACATATACACACACACCCACCCACCCA [CACACA_site8057] | 10.22 ± 0.071 |
| TAACTTCAAACAAAATATGGTAAAAGTGGTTGAAAA [CACACA_negctrl_site42] | 8.71 ± 0.42 |
| AAAATACCCGGACACACACACATATATATATATATT [CACACA_site6137] | 9.88 ± 0.49 |
| CCATAGATATTTTATACACACATATAATATATTAAT [CACACA_site373] | 8.91 ± 0.42 |
| GATGATTCAATTTATGCACACTAAAAATTAATTATA [CACACA_site4308] | 8.61 ± 0.47 |
| ACCAAAAGGGGATGTAGTACAATATGATTAGAAGAA [XGTACX_site3773] | 8.95 ± 0.75 |

| Sequence | gcPBM binding intensity (ln) |
| --- | --- |
| ATAATCTGACAAATGTGTACACATATATATATATAT [XGTACX_site2379] | 9.66 ± 0.55 |
| AAATAATATATTCCTTGTACTTATTTCAATGAATTC [XGTACX_site7719] | 8.7 ± 0.49 |
| AAGAATCACCAAATATGTACACACCTTAACATGTTT [XGTACX_site4272] | 9.15 ± 0.38 |
| CCACTGTATGAATGCACACATTCATAGAATTGCTAT [CACACA_site2676] | 9.04 ± 0.36 |
| TAATAAGGTTACAACAAACACACAAAGGAATATACA [CACACA_site4089] | 9.14 ± 0.45 |
| TAATTTGTTAAAGGTTCACATATGGTATATACTTCT [XGTACX_negctrl_site292] | 8.85 ± 0.57 |
| GATATGATTAACTTATGTTATTCTTGATGGTTTCTT [GTGCAC_negctrl_site411] | 8.9 ± 0.48 |
| TATCACAAAATATACTGTACATACAGGCAGTAATAT [XGTACX_site2487] | 8.85 ± 0.4 |
| TTATAAAACCATGTCATCAACATAGGCACAAAAATG [CACACA_negctrl_site1160] | 8.72 ± 0.35 |
| ATATGTACATATCTCATGCACTTAACAAAAAAAAAG [GTGCAC_site9898] | 8.7 ± 0.45 |
| TATGTATAGATATATACACACTTCTGTGATACGAAA [CACACA_site7003] | 8.84 ± 0.35 |
| TAAAGAGTCATGTGGTGTACCTGCTTCACCACATAT [XGTACX_site1288] | 8.91 ± 0.3 |
| TATATATTCATAAAGTGTACATGTTTATATATATAT [XGTACX_site7585] | 8.83 ± 0.4 |
| TTATTTTTAATATCGGTGCAACAAAAAGGAAAAGAT [GTGCAC_site9482] | 8.85 ± 0.37 |
| TATTATATGTAGTTGAGTACATATAAATACATATAT [XGTACX_site7933] | 8.79 ± 0.4 |
| AAATAGTTAAAAAGGCGTACACATAAATAAATAAAT [XGTACX_site2096] | 9.2 ± 0.52 |
| AATCTAATATAATGCACACATAAAAAAAAATCAAAC [CACACA_site3633] | 9.14 ± 0.45 |
| GTATATATATATATATATATAATAGTAACTTTTACT [CACACA_negctrl_site608] | 9.11 ± 0.26 |
| TGTAGTCTGGAGAAAAGTACATAGTATCTGGTAACA [XGTACX_site4940] | 8.72 ± 0.57 |
| TTTTAATTTTAAAAATGTACTTTTATTATTTTTAAT [XGTACX_site8300] | 8.34 ± 0.39 |
| TAAAAATTAAAATGTTGTACAATGATAAAATATTAT [XGTACX_site7874] | 8.75 ± 0.44 |
| TATTTGATAAAAAAAAGTACTAGAATTTCGCTTTTG [XGTACX_site7754] | 8.37 ± 0.39 |
